# The supplement of paper PMC11417369
# ± gives the standard deviation of the averaged measurements. Some of the results follow.
# Test system: PfAP2-LT AP2 domain (GST-tagged)
# Assay: gcPBM binding intensity (ln(normalized median fluorescence intensity)); higher = stronger DNA binding
# Method in brief: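 Plasmodium falciparum DNA-binding domains carrying a GST tag were expressed in E. coli and applied for 1 h, at about 25 μg on average, to an Agilent 4 × 180k array. The array held primer-extended double-stranded 36-bp intergenic genomic probes together with negative controls, and binding took place in 1× PBS with 1% milk, 0.2 mg/ml BSA, 0.5% salmon testes DNA and 0.03% Triton X-100. An Alexa488 anti-GST antibody detected bound protein, and the array was scanned at 488 nm. Binding intensity is taken as the highest Masliner-normalised natural-log median intensity across replicate spots of either probe orientation.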
row,Sequence,gcPBM binding intensity (ln)
1,ATCCAAATTAATAATAGTACTTTTAAGTCCTATGTA [XGTACX_site2452],8.65 ± 0.38
2,CAAACAAATTGTGAAACACACATATATATATATATA [CACACA_site2001],9.81 ± 0.057
3,ATAATAAATGTCTTCAATGAAGTGGAAATGCTGTTA [TGCATGCA_negctrl_site238],8.64 ± 0.45
4,ATATATACATAGAATTGTACATAATTTATGTTCATT [XGTACX_site7426],8.71 ± 0.39
5,ATCATGGAAAAAACAAATGGGCTACATTACCTTTTG [GTGCAC_negctrl_site487],8.68 ± 0.45
6,TTGGAGTTCATATGTGGTACACATTTAAATATATTT [XGTACX_site5582],8.72 ± 0.43
7,GATATAAACGTATATGTACATATATATATATATATA [GTGCAC_negctrl_site186],10.1 ± 0.38
8,GTGTATCAATATGTAGGTACGTAAATATAGATAATA [XGTACX_site5526],8.97 ± 0.47
9,AAAATAAAATTTACTTGTACTAAAGGGATACGCGCA [XGTACX_site1453],8.65 ± 0.48
10,TAAATATTATTTATATGTACTGATATATTAAATAAA [XGTACX_site3446],8.23 ± 0.41
11,AATTAATATTTAAATTGTACATGAACATTTTAATGT [XGTACX_site462],8.53 ± 0.46
12,AATATAAATTTATATTGTACATATTTTATTATATGT [XGTACX_site905],8.74 ± 0.4
13,GTCACAAAATAAATTAAACACACAACATCATATATG [CACACA_site8182],9.2 ± 0.35
14,AAATAAAATCATAATGTGCGCATATAAATTTGTAGG [GTGCAC_site9662],9.14 ± 0.39
15,ATATATATATATGAAAGTACACATCTATTTTTTCTT [XGTACX_site6059],9.13 ± 0.35
16,AAGGTAGATATATTTAGTACGTAATTTTTTTTTTTT [XGTACX_site7288],8.62 ± 0.5
17,TAATATAATATATAGGTGCAATATTAACAAAAATTT,8.72 ± 0.47
18,ATTAATATGAATAAATGTACAAATGAATGATTACAT [XGTACX_site6044],8.85 ± 0.47
19,ATAATGTGTTAGGCGTGTACACAATTGTATGGTTTA [XGTACX_site2377],9.12 ± 0.33
20,GACATAAGATAATTACACATTGTTTCCTCAATAATA [CACACA_negctrl_site1616],8.61 ± 0.5
21,TTTCTTTAATATATAGTGCATGTAAATTTTACAATA [GTGCAC_site9679],8.4 ± 0.39
22,ATTTTAACGAATATATGTACATAAAAAAAAAAAAGA [XGTACX_site8750],8.73 ± 0.57
23,TAAGTAAAAAATTAAAAAGATTACAGGGGGGGAAGG [XGTACX_negctrl_site491],9.825 ± 0.064

row,Sequence,gcPBM binding intensity (ln)
1,AAAATAAGGACTGTTGTGCACTGGATTTGTGGTTAC [GTGCAC_site9830],9.04 ± 0.39
2,AAAAAAAAAAACAGTTGTACATTTATTTATATATTA [XGTACX_site217],8.46 ± 0.4
3,ATAACAAAATAAAACACACACACAAATGTACAGATA [CACACA_site5358],9.82 ± 0.33
4,ATTTTTGTGTTTACACGTACGTGTAAATTATTTTTC [XGTACX_site1869],9 ± 0.44
5,TATTCATGTTTAAAAAGTACATATTATGGTAACATT [XGTACX_site4533],8.62 ± 0.37
6,AGAAGCATACATCAAGCACACACACCCACACCCACA [CACACA_site8014],10 ± 0.37
7,TCCTTTTCTTAATTTAAAAAATATAAAAAAAACGAA [CACACA_negctrl_site1821],7.94 ± 0.34
8,ACACGTTTATATAAAAAATTAAAATTTTTCTTATTT [CACACA_negctrl_site1523],8.4 ± 0.53
9,AATACATACAGACACACACACACATATAAATAAATA [CACACA_site7642],10.1 ± 0.38
10,GCTCATTGAAGTTATACACACCAAATATGTAAATAT [CACACA_site7217],8.95 ± 0.34
11,AAAAGGGATAAATGTGCGCACATGTTATATATATAT [GTGCAC_site9534],9.39 ± 0.43
12,ACATATCTACACAGTGGTACTTCCATTAATATATAC [XGTACX_site3827],9.03 ± 0.38
13,ATTTATTCAAATGGTTGTACTACAAATAAACATTAT [XGTACX_site3378],8.66 ± 0.35
14,TCATAAATTAAACAAACACACACGTTCTTTTATTTA [CACACA_site713],8.94 ± 0.48
15,AACAATGTTGTACATACACACACACTAATAAAAAAT [CACACA_site8758],9.62 ± 0.39
16,CATAAATACACTGTAGCGCACACGGCCAAAAAAAAA [CACACA_site8537],9.32 ± 0.42
17,ATATAATATGGTATTACACACTGTTATAAGTATGGC [CACACA_site2094],8.97 ± 0.38
18,TTTATTCCCGCATATAGTACATATACCATTTAATGT [XGTACX_site7011],8.9 ± 0.38
19,GTAAAAAAAGAGCACACACACAAAAACACCCACAAA [CACACA_site1292],10.3 ± 0.23
20,ATAAATAAAATATGCACACAAATATAGGAAACAACA [CACACA_site2561],9.38 ± 0.38
21,AAACTTGTAAGAAACACACACACACGCATATAAATA [CACACA_site6518],9.98 ± 0.099
22,AATATTTAAGTACTGGTGCGTGTATATAATGATTAA [GTGCAC_site9633],8.79 ± 0.38
23,TTAAATAAAATTTATTGTACATAAAATTAAATATAG [XGTACX_site3039],8.34 ± 0.54

row,Sequence,gcPBM binding intensity (ln)
1,CATAATTTACATAAAAGTACATATATATTAATGACG [XGTACX_site6247],8.74 ± 0.45
2,ATCTTTTATATATTCACACATAAAATTATACAGATA [CACACA_site5277],8.61 ± 0.41
3,GAGTTTTAATGTAATAGTACTTTAATTATTATATAT [XGTACX_site4527],8.68 ± 0.42
4,TTTTTTTTTTATTCATGTACGTATTTAAATAATTCT [XGTACX_site2651],8.68 ± 0.44
5,AAAAAAAAAAAAAACACACAAACAAATGAATAAATA [CACACA_site3300],8.99 ± 0.54
6,AATAAATAAATAAATATATATATATATATATATATA [CACACA_negctrl_site708],9.24 ± 0.35
7,ATATATATATATAATGCACACATTATAAATTATGTA [CACACA_site5802],9.02 ± 0.31
8,TGTATATACATAAAGTGTACGTATATTTATATATAT [XGTACX_site4320],8.78 ± 0.37
9,TATTTTTATTTTACATTATTTGTTTATAATTCTTAA [CACACA_negctrl_site1358],8.53 ± 0.57
10,TATATATATAAGGATAGTACATATATTTATATGATT [XGTACX_site4954],8.65 ± 0.49
11,GTATAATAAATGATAGCACACATATGTACTTATATA [CACACA_site8188],8.97 ± 0.46
12,ATGAAATTTATATCATGTACATACAAGAGAAAAAAA [XGTACX_site3326],8.8 ± 0.47
13,AAAATTATAAAATGGGCACACATGAATATTGTAGTA [CACACA_site5261],8.9 ± 0.49
14,GACTACACACAAGGGTGTACATATATATTATATATA [XGTACX_site2247],9.1 ± 0.42
15,TTAACTTATTTGTAAAGTACATTAATAAAAAGAAAA [XGTACX_site1588],8.34 ± 0.52
16,AGGTTATAATTGTTTTCACACATTTAAAAATGTTAT [CACACA_site5097],8.82 ± 0.43
17,TTATATATTTCTATTGCACACTATATTTTATGAAGA [CACACA_site2910],8.77 ± 0.38
18,TTTATTTTAAATTTACGTACATAATTAATCATATTT [XGTACX_site7529],8.62 ± 0.54
19,ATAAAAAATTAGGACTGTACATAATTTTTGTGATTT [XGTACX_site2857],8.64 ± 0.4
20,TAATGCAACATTTATGTGCACATAAATATTTTTTAA,8.62 ± 0.45
21,AAAACACAATTTATTACACACATATATTATAGATTA [CACACA_site6780],8.88 ± 0.42
22,TTATAAAAATACAGTTAACACACATGTGTATATATA [CACACA_site9257],9.12 ± 0.21
23,GATCGCATGAAATGAACACACATAAAAAAAATATAC [CACACA_site4087],9.15 ± 0.48

row,Sequence,gcPBM binding intensity (ln)
1,AAAAAAAAAATATACACACACACATACCCATAAATA [CACACA_site5981],9.865 ± 0.035
2,AAAATAATCTTATGCACACCAAAAATTTATATAATC [CACACA_site1235],8.9 ± 0.42
3,ACAAAAAGTTACATACGTACGTAAAATTGTAATAAA [XGTACX_site2358],9.1 ± 0.57
4,ATTATATTATATATATGTACATATATATATCATAAT [XGTACX_site1],8.79 ± 0.39
5,ATAATACCATTAATTTGTACATATATATTATATATA [XGTACX_site4345],8.77 ± 0.44
6,TTTTGGATGAACAGTACATGCAAAAACAAACTTGTA [TGCATGCA_site16],8.68 ± 0.28
7,TGCTTCTTTTAAAAACATGTTTGTATTCATTTTATA [CACACA_negctrl_site1627],8.85 ± 0.4
8,ATTTCTCTATCGTAATGTACAAAAAAAAGGAAAAAA [XGTACX_site1323],8.5 ± 0.51
9,ACATATAAATGATATGTACACACATTTATATATATA [CACACA_site9152],9.06 ± 0.26
10,TTTTTAACGTATAAGGTGCACTGTATATGGTACTCA,8.88 ± 0.45
11,TCTTCTTTAAAAGAGGTGCACTATATAATGTGATTA [GTGCAC_site9431],8.54 ± 0.43
12,TAATTATACTTATTTTGTACGCAATATTTAAAATAA [XGTACX_site8516],8.49 ± 0.43
13,TATATATATATATATTGTACACATACATGTAGTTTT [XGTACX_site4848],9.48 ± 0.49
14,TATATATATATATAGGTGCAATATTGAAAAAATATC [GTGCAC_site9535],9.12 ± 0.28
15,AAAGTAATATATAATACATGCGTAAATATTTATGTA [TGCATGCA_site254],8.84 ± 0.51
16,GACAAATGAAAAGATTGTACATGTATTTGAAGATTA [XGTACX_site6775],8.95 ± 0.38
17,TACACAAAAATTTATACACACACATATATAATATAT [CACACA_site7931],9.38 ± 0.4
18,TGATTATATATAAATGTATGCATGTCTATTATGCTA [TGCATGCA_site543],8.66 ± 0.4
19,TCTTTTATATTTTTTTGTACACAAGAATAAAGAAAA [XGTACX_site3394],8.12 ± 0.4
20,ATATATATATATATATCACACATTAATAATATATAT [CACACA_site5081],9.47 ± 0.17
